From PubChem BioAssay (NCATS)
The inconclusive results got no clear call from the source; some entries with a clear call stand among them for comparison. Potencies of inconclusive entries are left out as doubtful fits. The source made the active and inactive calls. Calls follow the shape of the dose curve; as a rule, active = well fitted curve in the direction sought with a large enough effect; inconclusive = small, poorly fitted or top-dose-only effect, or another doubt; inactive = no such curve, though single readings can be large; an effect the other way counts as inactive or inconclusive.

Tested on: not listed separately
Assay: Primary redox qHTS assay for identification of artifact compounds. (AID 1845223)
Conditions: Amplex Red/HRP redox cycling with DTT, fluorescence; series mostly up to 53.8 µM
Method in brief: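 Amplex Red (25 uM) and HRP (250 mU/mL) in HBSS, with compounds for 15 min, then 250 uM DTT for 30 min, room temperature, dark. Fluorescence 525/598 nm read; normalized to DMSO and 10 uM DA3003; Hill fit.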
Potency is read from the fitted curve at half-maximal effect; tags tell the direction and shape of the fitted curve.

| Structure (SMILES) | Potency |
| --- | --- |
| N#Cc1ccc2c(c1)CCN(CCC1CCC(NC(=O)c3ccnc4ccccc34)CC1)C2 (stereo not given) | inconclusive [activator, full curve] |
| CC(O)(CC(=O)O)CC(=O)O[C@@H]1[C@@H](O)[C@H](OCCc2ccccc2)O[C@H](CO)[C@H]1O (stereo not given in full) | inactive |
| CN1CCc2nc(C(=O)N[C@@H]3C[C@@H](C(=O)N(C)C)CC[C@@H]3NC(=O)C(=O)Nc3ccc(Cl)cn3)sc2C1 | inconclusive [activator, full curve, poor fit] |
| C[C@@H]1CC[C@]2(C(=O)O[C@@H]3O[C@H](CO)[C@@H](O)[C@H](O)[C@H]3O)CC[C@]3(C)C(=CCC4[C@@]5(C)C[C@@H](O)[C@H](O)[C@@](C)(C(=O)O[C@H]6[C@H](O)C[C@@]7(C)C(CC[C@]8(C)C7CC=C7[C@H]9[C@](C(=O)O[C@@H]%10O[C@H](CO)[C@@H](O)[C@H](O)[C@H]%10O)(CC[C@@H](C)[C@@]9(C)O)CC[C@]78C)[C@@]6(CO)C(=O)O)C5CC[C@]43C)[C@@H]2[C@]1(C)O (stereo not given in full) | inconclusive [activator, partial curve, poor fit] |
| CC(=O)N[C@H]1[C@H](O[C@H]2CC[C@@]3(C)C(CC[C@]4(C)C3CC=C3C5CC(C)(C)CC[C@]5(C(=O)O)[C@H](O[C@@H]5O[C@H](CO)[C@@H](O)[C@H](O)[C@H]5O)C[C@]34C)C2(C)C)O[C@H](CO[C@@H]2OC[C@H](O)[C@H](O)[C@H]2O[C@@H]2OC[C@@H](O)[C@H](O)[C@H]2O)[C@@H](O)[C@@H]1O (stereo not given in full) | inconclusive [activator, partial curve, poor fit] |
| CC(C)c1cc2c(c(O)c1O)[C@@]13CCCC(C)(C)[C@@H]1[C@H](OC3=O)C2=O | active: 16.5 µM |
| COc1cc2c(cc1O)C(c1ccc(O)cc1)C(C)C(C)C2 (stereo not given) | inactive |
| CC1=C(C)C(=O)OC(C(C)C2CCC3C4CC=C5CC(OC6OC(COC7OC(CO)C(O)C(O)C7O)C(O)C(O)C6O)CC(O)C5(C)C4CCC23C)C1 (stereo not given) | inconclusive [activator, single point] |
| CC1(C)CC[C@]2(C(=O)O[C@@H]3O[C@H](CO)[C@@H](O)[C@H](O)[C@H]3O)CC[C@]3(C)C(=CCC4[C@@]5(C)C[C@@H](O)[C@H](O)[C@@](C)(CO)C5CC[C@]43C)C2C1 (stereo not given in full) | inconclusive [activator, single point] |
| O=C1N=C(N2CCOCC2)CN1c1ccc(Cl)cc1 | inactive |

Tested on: C33A
Assay: Primary qHTS to identify gynecologic anti-cancer compounds using libraries of approved drugs and bioactive compounds (AID 1345084); also: nearly all actives have a fitted effect of over 55% in size; as to activity change, negative = cytotoxicity: % is scaled to controls: 0 for no effect and ±100 for the full control effect
Conditions: Gynecologic cancer cell panel viability, ATPlite luminescence, 48 h; series mostly up to 57.5 µM
Method in brief: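 Cells, 1,000 per well, were allowed to settle for 16 h at 37 C before compound addition. Five concentrations were tested for 48 h, and viability was read by ATPlite luminescence after 15 min at room temperature.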

| Structure (SMILES) | Potency | activity change, negative = cytotoxicity |
| --- | --- | --- |
| Nc1ccc(S(=O)(=O)Nc2nccs2)cc1 | inconclusive [cytotoxic, single point] |  |
| NC(=O)c1ncn([C@@H]2O[C@H](CO)[C@@H](O)[C@H]2O)n1 | inconclusive [rising, full curve] |  |
| N#Cc1ccc2c(c1)CCN(CCC1CCC(NC(=O)c3ccnc4ccccc34)CC1)C2 (stereo not given) | inconclusive [cytotoxic, single point] |  |
| O=C(O)c1ccnc(-c2cc(C(=O)NCCc3ccccc3)ccn2)c1 | inconclusive [cytotoxic, single point] |  |
| COC(=O)CCCCC(CCSS/C(CCO)=C(\C)N(C=O)Cc1cnc(C)nc1N)SC(C)=O (stereo not given) | inactive |  |
| OC[C@H]1O[C@@H](Oc2cc(O)cc(-c3cc4ccc(O[C@@H]5O[C@H](CO)[C@@H](O)[C@H](O)[C@H]5O)cc4o3)c2)[C@H](O)[C@@H](O)[C@@H]1O | inactive |  |
| CC(O)(CC(=O)O)CC(=O)O[C@@H]1[C@@H](O)[C@H](OCCc2ccccc2)O[C@H](CO)[C@H]1O (stereo not given in full) | inactive |  |
| COC(O)(CC(C)C)C1Oc2cc(C)[nH]c(=O)c2O1 (stereo not given) | inactive |  |
| C=C(C(=O)O)[C@@H]1CC=C2CCC[C@H](C)[C@@]2(C)C1 | inactive |  |
| CC(=O)O[C@]1(C(C)=O)CC[C@H]2[C@@H]3C[C@H](C)C4=CC(=O)C=C[C@]4(C)[C@@]3(F)[C@@H](O)C[C@@]21C | inactive |  |
| CNC(=O)c1ccc2c(c1)CCO[C@H]2CCN1CCN(c2ccc(C(N)=O)cc2)CC1 | inactive |  |
| COC(=O)[C@H](O)[C@H]1C(C)(C)[C@H](OC(C)=O)[C@@]2(O)C(=O)[C@]1(C)C1CC[C@]3(C)C(CC(=O)O[C@H]3c3ccoc3)[C@]13O[C@@H]32 (stereo not given in full) | inactive |  |
| CN1CCc2nc(C(=O)N[C@@H]3C[C@@H](C(=O)N(C)C)CC[C@@H]3NC(=O)C(=O)Nc3ccc(Cl)cn3)sc2C1 | inactive |  |
| C[C@@H]1CC[C@]2(C(=O)O[C@@H]3O[C@H](CO)[C@@H](O)[C@H](O)[C@H]3O)CC[C@]3(C)C(=CCC4[C@@]5(C)C[C@@H](O)[C@H](O)[C@@](C)(C(=O)O[C@H]6[C@H](O)C[C@@]7(C)C(CC[C@]8(C)C7CC=C7[C@H]9[C@](C(=O)O[C@@H]%10O[C@H](CO)[C@@H](O)[C@H](O)[C@H]%10O)(CC[C@@H](C)[C@@]9(C)O)CC[C@]78C)[C@@]6(CO)C(=O)O)C5CC[C@]43C)[C@@H]2[C@]1(C)O (stereo not given in full) |  | inactive: 2.44% [at 6.55 µM] |
| O=C(OCCOCCO)c1ccccc1Nc1cccc(C(F)(F)F)c1 | inconclusive [cytotoxic, single point] |  |
| C[C@]1(OC(=O)/C=C/c2ccccc2)C[C@@H](O)[C@]2(O)C=CO[C@@H](O[C@@H]3O[C@H](CO)[C@@H](O)[C@H](O)[C@H]3O)[C@@H]21 | inactive |  |
| Cc1ccc(COC(=O)N2CC[C@@H](CNc3ncccn3)[C@@H](F)C2)cc1 | inactive |  |
| COc1c(O[C@@H]2O[C@H](CO)[C@@H](O)[C@H](O)[C@H]2O)c(CCC(=O)O)cc2ccoc12 | inconclusive |  |
| CC(=O)N[C@H]1[C@H](O[C@H]2CC[C@@]3(C)C(CC[C@]4(C)C3CC=C3C5CC(C)(C)CC[C@]5(C(=O)O)[C@H](O[C@@H]5O[C@H](CO)[C@@H](O)[C@H](O)[C@H]5O)C[C@]34C)C2(C)C)O[C@H](CO[C@@H]2OC[C@H](O)[C@H](O)[C@H]2O[C@@H]2OC[C@@H](O)[C@H](O)[C@H]2O)[C@@H](O)[C@@H]1O (stereo not given in full) |  | inactive: -4.04% [at 11.6 µM] |
| C=C[C@@](C)(CCC=C(C)C)O[C@@H]1O[C@H](CO[C@@H]2OC[C@H](O)[C@H](O)[C@H]2O)[C@@H](O)[C@H](O)[C@H]1O | inactive |  |

| Structure (SMILES) | Potency | activity change, negative = cytotoxicity |
| --- | --- | --- |
| CC1(C)CC2C(C1)C(C)(O)C13CC1(COC3=O)C2O (stereo not given) | inactive |  |
| CC(C)c1cc2c(c(O)c1O)[C@@]13CCCC(C)(C)[C@@H]1[C@H](OC3=O)C2=O | inactive |  |
| COc1cc2c(cc1O)C(c1ccc(O)cc1)C(C)C(C)C2 (stereo not given) | inactive |  |
| Cc1cc(C)c2nc(-c3ccccn3)cc(C(=O)Nc3ccc(S(=O)(=O)Nc4onc(C)c4C)cc3)c2c1 | inactive |  |
| C/C(CO)=C1/CCC23COC(C2)C(O)(C(=O)O)CCC13 (stereo not given) | inactive |  |
| C=C1C(O)CC2C(C(=O)O)=COC(OC3OC(CO)C(O)C(O)C3OC(=O)/C=C\c3ccc(O)cc3)C12 (stereo not given) | inconclusive [rising, partial curve, poor fit] |  |
| CC1OC(OC2C(OC3C(O[C@H]4CC[C@@]5(C)C(CC[C@]6(C)C5C(=O)C=C5C7CC(C)(C)CC(O)[C@]7(C)CC[C@]56C)C4(C)C)OC(C(=O)O)C(O)C3O)OCC(O)C2O)C(O)C(O)C1O (stereo not given in full) |  | inactive: -11.1% [at 11.6 µM] |
| COC(=O)C1=COC(O[C@@H]2O[C@H](CO)[C@@H](O)[C@H](O)[C@H]2O)[C@@H]2[C@@](C)(O)[C@@H](OC(=O)/C=C/c3ccccc3)C[C@]12O (stereo not given in full) | inactive |  |
| C[C@@H]1O[C@@H](O[C@H]2[C@H](OC(=O)[C@]34CCC(C)(C)C[C@H]3C3=CCC5[C@@]6(C)CC[C@H](O[C@@H]7O[C@H](CO[C@@H]8OC[C@H](O)[C@H](O)[C@H]8O)[C@@H](O)[C@H](O)[C@H]7O)C(C)(C)C6CC[C@@]5(C)[C@]3(C)C[C@H]4O)OC[C@@H](O)[C@@H]2O)[C@H](O)[C@H](O[C@@H]2OC[C@](O)(CO)[C@H]2O)[C@H]1O[C@@H]1OC[C@H](O)[C@H](O[C@@H]2OC[C@@H](O)[C@H](O)[C@H]2O)[C@H]1O (stereo not given in full) |  | inactive: -0.179% [at 6.55 µM] |
| CC(C)c1ccc2c(c1)C(=O)CC1[C@@](C)(C(=O)O)CCC[C@]21C (stereo not given in full) | inactive |  |
| CC1=C(C)C(=O)OC(C(C)C2CCC3C4CC=C5CC(OC6OC(COC7OC(CO)C(O)C(O)C7O)C(O)C(O)C6O)CC(O)C5(C)C4CCC23C)C1 (stereo not given) | inactive |  |
| CC1(C)CC[C@]2(C(=O)O[C@@H]3O[C@H](CO)[C@@H](O)[C@H](O)[C@H]3O)CC[C@]3(C)C(=CCC4[C@@]5(C)C[C@@H](O)[C@H](O)[C@@](C)(CO)C5CC[C@]43C)C2C1 (stereo not given in full) | inactive |  |
| O=c1[nH]c2cc(C(F)(F)F)c(N3CCOCC3)cc2n(CP(=O)(O)O)c1=O | inactive |  |
| COc1cc(O)cc(O[C@@H]2O[C@H](CO)[C@@H](O[C@@H]3OC[C@](O)(CO)[C@H]3O)[C@H](O)[C@H]2O)c1OC | inactive |  |
| Nc1ccc(/C=C/c2ccc(N)cc2S(=O)(=O)O)c(S(=O)(=O)O)c1 |  | inactive: -2.85% [at 0.462 µM] |
| CN(C)CC(c1ccc(O)cc1)C1(O)CCCCC1 (stereo not given) | inactive |  |
| CC(NCc1ccc(OCc2cccc(F)c2)cc1)C(N)=O (stereo not given) | inactive |  |
| CCn1nnnc1NCc1ccc(C(C)C)cc1 | inactive |  |
| O=C1N=C(N2CCOCC2)CN1c1ccc(Cl)cc1 | inconclusive [rising, partial curve, poor fit] |  |
| C/C=C(\C)C(=O)O[C@@H]1CC2[C@@H](CC=C3C[C@@H](O[C@H]4C[C@H](OC)[C@H](O[C@H]5C[C@H](OC)[C@H](O[C@@H]6O[C@H](C)[C@@H](O[C@H]7C[C@H](OC)[C@H](O[C@@H]8O[C@H](CO)[C@@H](O)[C@H](O)[C@H]8O)[C@@H](C)O7)[C@H](OC)[C@H]6O)[C@@H](C)O5)[C@@H](C)O4)CC[C@@]32C)[C@@]2(O)CC[C@H](C(C)=O)[C@@]12C (stereo not given in full) |  | inactive: 1.36% [at 6.55 µM] |
